PubChem BioAssay AID1468 (National Center for Advancing Translational Sciences (NCATS), 2008)
Where “and” joins values, the source holds several entries; their conditions need not be identical. Equal values may be shown once. Screen size: about 280,000 compounds; about 1,100 (0.39%) were called active. The shares of active, inactive and inconclusive entries below differ from those in the screen. Calls follow the shape of the dose curve; as a rule, active = well fitted inhibition curve with a large enough effect; inconclusive = small, poorly fitted or top-dose-only effect, or effect the other way; inactive = flat fitted curve, though single readings scatter. Potencies beside an inconclusive call are fits to weak or partial responses and may not hold up.
Also: nearly all actives have a fitted effect of over 55% in size.
Potency is read from the fitted curve at half-maximal effect; tags tell the direction and shape of the fitted curve.

These compounds were tested against Microtubule-associated protein tau (Homo sapiens) (UniProt P10636) (assay: qHTS for Inhibitors of Tau Fibril Formation, Fluorescence Polarization). Conditions: K18 P301L tau heparin fibrillization, Alexa594 FP, 6 h; series mostly up to 57.7 µM.
Chain of UniProt P10636 (P10636 whole entry, looked up): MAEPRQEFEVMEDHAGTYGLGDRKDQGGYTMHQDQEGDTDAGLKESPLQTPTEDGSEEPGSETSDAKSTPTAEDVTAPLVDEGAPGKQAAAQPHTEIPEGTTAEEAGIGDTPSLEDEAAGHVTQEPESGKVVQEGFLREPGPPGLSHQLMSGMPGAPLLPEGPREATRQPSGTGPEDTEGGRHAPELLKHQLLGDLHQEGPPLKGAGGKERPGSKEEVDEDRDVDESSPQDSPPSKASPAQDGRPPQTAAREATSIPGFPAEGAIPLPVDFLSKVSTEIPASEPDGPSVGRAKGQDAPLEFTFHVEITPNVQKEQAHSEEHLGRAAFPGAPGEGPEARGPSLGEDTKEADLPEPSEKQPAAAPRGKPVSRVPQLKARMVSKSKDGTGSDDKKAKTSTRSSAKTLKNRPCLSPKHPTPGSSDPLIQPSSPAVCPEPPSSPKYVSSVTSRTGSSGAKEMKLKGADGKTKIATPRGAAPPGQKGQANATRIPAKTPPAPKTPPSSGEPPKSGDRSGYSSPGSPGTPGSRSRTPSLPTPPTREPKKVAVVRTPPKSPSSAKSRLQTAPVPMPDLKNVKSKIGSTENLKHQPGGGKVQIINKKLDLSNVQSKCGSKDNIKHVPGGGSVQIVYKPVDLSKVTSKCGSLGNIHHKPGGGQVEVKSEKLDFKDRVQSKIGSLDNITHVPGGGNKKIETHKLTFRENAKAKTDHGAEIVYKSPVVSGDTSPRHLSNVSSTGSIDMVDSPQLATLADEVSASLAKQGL
Summary of the method: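 Read-out: fluorescence polarization of Alexa 594-labeled tau (0.24 uM), 555 nm excitation, 632 nm emission. Mixtures held 15 uM unlabeled K18 P301L, compound and 20 uM heparin, pH 7 acetate buffer, incubated 6 hr at 37 C.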
In the case of COc1ccc(C)cc1NC(=O)C(=O)NNC(=O)COc1ccc(Cl)cc1, the Potency is reported as inconclusive: 6.31 µM [inhibitor, partial curve].
With CCCCC1=CC2=C(OC(C)=O)C(=O)C(C)(OC(=O)C3CCCC3)C(=O)C2=CO1 (stereo not drawn) the Potency was inconclusive: 35.5 µM [inhibitor, single point].
With O=C(NCCN1C(=O)S/C(=C\c2ccc(Cl)c(Cl)c2)C1=O)C1COc2ccccc2O1 (stereo not drawn) the Potency was inconclusive: 20 µM [inhibitor, single point].
For O=[N+]([O-])/C(C(Cl)=C(Cl)Cl)=C(\Sc1ccccc1)N1CCCCC1, the Potency was inconclusive: 39.8 µM [inhibitor, single point].
For O=C(Cn1ncc2c([nH]c3ccccc32)c1=O)Nc1cccc(C(F)(F)F)c1, the Potency was inconclusive: 14.1 µM [inhibitor, partial curve].
CCc1ccc(C2C(C#N)=C(N)C(C#N)(C#N)C3=CCC(C(C)(C)C)CC32)cc1 (stereo not drawn) was tested, and the Potency was inconclusive: 15.8 µM [inhibitor, partial curve, poor fit].
For CC(/C=N/NC(=O)c1ccc(Br)cc1)=C\c1ccccc1, the Potency was inconclusive: 31.6 µM [inhibitor, partial curve, poor fit].
Cc1ccccc1CN1c2ccccc2S(=O)(=O)c2ccccc21 was tested, and the Potency was inconclusive: 0.355 µM [inhibitor, full curve, poor fit].
In the case of O=C(c1nn2c(C(F)(F)F)cc(-c3ccco3)nc2c1Br)N1CCCc2ccccc21, the Potency is reported as inconclusive: 39.8 µM [inhibitor, single point].
In the case of Cc1cc(C)c(C(=O)COC(=O)c2cc([N+](=O)[O-])ccc2NCCO)cc1C, the Potency is reported as inconclusive: 7.94 µM [inhibitor, full curve].
Cc1ccc(-n2c(C)nn(CC3CC3)c2=O)cc1 was tested, and the Potency was inconclusive: 3.55 µM [inhibitor, single point].
Cc1cccc(NC(=O)CSC(N)=O)c1C was tested, and the Potency was inconclusive: 35.5 µM [inhibitor, single point].
In the case of N#C/C(=C1\C(=O)Nc2c(Cl)cc(Cl)cc21)c1nnc2n1CCCCC2, the Potency is reported as inconclusive: 14.1 µM [inhibitor, partial curve].
In the case of Cc1ccccc1NCc1cccn1-c1nnc(N2CCC(C)CC2)s1, the Potency is reported as “inactive”.
In the case of COC(=O)c1scc(-c2ccc(C)cc2)c1S(=O)(=O)Nc1ccc(N(C)C)cc1, the Potency is reported as inconclusive: 31.6 µM [activator, partial curve].
For CCOC(=O)c1ccccc1N1C(=O)C2Sc3[nH]c(=O)sc3C(/C=C/c3ccccc3)C2C1=O (stereo not drawn), the Potency was inconclusive: 2.51 µM [activator, full curve, poor fit].
In the case of CCOc1ccc(S(=O)(=O)N(CC(=O)Nc2ccc3c(c2)OCO3)c2ccccc2)cc1, the Potency is reported as “inactive”.
Cc1ccc(NC(=O)Cn2c(=O)n(-c3ccccc3)c(=O)c3ccc(C(=O)NCc4ccc5c(c4)OCO5)cc32)c(C)c1 was tested, and the Potency was inconclusive: 3.98 µM [inhibitor, partial curve].
With CC(C)N1C(=O)S/C(=C/c2ccc(Sc3nc4ccccc4[nH]3)o2)C1=O the Potency was inconclusive: 5.62 µM [inhibitor, full curve, poor fit].
In the case of CCOC(=O)c1cccc(NC(=O)c2ccc3nc(Cc4ccccc4)oc3c2)c1, the Potency is reported as inconclusive: 8.91 µM [inhibitor, partial curve].
With COc1cc(/C=N/NC(=O)CCN2CCN(C(c3ccccc3)c3ccccc3)CC2)ccc1O the Potency was inconclusive: 0.251 µM [activator, full curve, poor fit].
With CS(=O)(=O)N1Cc2ccccc2CC1C(=O)OCC(=O)Nc1ccc2ccccc2c1 (stereo not drawn) the Potency was inconclusive: 20 µM [inhibitor, partial curve].
For CCn1c(O)c(/C=C2\C=NN=C2c2ccccc2)sc1=S, the Potency was inconclusive: 20 µM [inhibitor, partial curve].
With COc1ccc(S(=O)(=O)N(CC(=O)Nc2cccc(C(F)(F)F)c2)c2ccc(C)cc2)cc1 the Potency was inconclusive: 11.2 µM [inhibitor, partial curve].
CCN(CC)S(=O)(=O)c1cc(NC(=O)COC(=O)c2ccc(NC(=O)CC#N)cc2)ccc1C was tested, and the Potency was inconclusive: 15.8 µM [inhibitor, partial curve].
For Cn1c(CC(=O)Nc2ccc(F)cc2)c(Sc2ccccc2)c2ccccc21, the Potency was inconclusive: 1 µM [inhibitor, partial curve, poor fit].
COc1ccc(OC)c(-c2csc(-c3c(N)c(C(=O)c4ccccc4)n4ccccc34)n2)c1 was tested, and the Potency was inconclusive: 2 µM [activator, full curve].
O=C(Cn1ncn2nc(-c3cccs3)cc2c1=O)NCc1cccc(Br)c1 was tested, and the Potency was inconclusive: 0.631 µM [inhibitor, partial curve].
For Cc1ccccc1OCc1nc(-c2ccc(NC(=O)c3ccc4c(c3)OCO4)cc2)no1, the Potency was inconclusive: 8.91 µM [inhibitor, partial curve].
In the case of CCc1cc2c3c(c1)C1(C(=O)N3C(C)(C)C=C2C)C(C#N)=C(N)Oc2[nH]c(=O)[nH]c(=O)c21 (stereo not drawn), the Potency is reported as inconclusive: 39.8 µM [inhibitor, single point].
CCOC(=O)C1CCN(C(=O)C2(NC(=O)Nc3ccccc3Cl)CCCCC2)CC1 was tested, and the Potency was inconclusive: 2.24 µM [inhibitor, single point].
For CC(C)CCOc1ccc(C(=O)O)cc1, the Potency was “inactive”.
In the case of COc1cccc(-c2cc(C(F)(F)F)nc(NCCc3ccccc3)n2)c1, the Potency is reported as inconclusive: 3.55 µM [inhibitor, partial curve].
In the case of O=C(Nc1ccc(Cl)cc1)c1cc2nc(C3CC3)cc(C(F)(F)F)n2n1, the Potency is reported as inconclusive: 25.1 µM [inhibitor, single point].
With O=C(CSc1nnc(-c2ccc(O)cc2)o1)c1ccc(Br)cc1 the Potency was inconclusive: 14.1 µM [inhibitor, partial curve].
With Cc1ccc2c(c1)-c1nc(-c3ccc4c(c3)NC(=O)CO4)cc(-c3ccc(F)cc3)c1CO2 the Potency was inconclusive: 12.6 µM [inhibitor, partial curve].
In the case of Cc1ccc(/C=C2\SC(=S)N(C3CCS(=O)(=O)C3)C2=O)cc1 (stereo not drawn), the Potency is reported as inconclusive: 7.94 µM [inhibitor, partial curve].
In the case of NS(=O)(=O)c1ccc(NN=C2CCN(Cc3ccccc3)CC2)c([N+](=O)[O-])c1, the Potency is reported as “inactive”.
With COc1ccc2c3c(cccc13)C(=O)N(O)C2=O the Potency was “inactive”.
With COc1cccc(CNC(=O)CN(C)S(=O)(=O)c2ccc3[nH]c4c(c3c2)CCCC4)c1 the Potency was inconclusive: 11.2 µM [activator, partial curve, poor fit].
With CC(C)C(C(=O)N1CCN(C(=O)OC(C)(C)C)CC1)n1cc(-c2cn([C@@H](C)C(=O)N3CCN(C(=O)OC(C)(C)C)CC3)nn2)nn1 (stereo partly drawn) the Potency was “inactive”.
In the case of CCCN(N=Nc1cccc([N+](=O)[O-])c1)c1cccc([N+](=O)[O-])c1, the Potency is reported as “inactive”.
In the case of CCCOc1ccc(CSCCNC(=S)Nc2ccccc2)cc1, the Potency is reported as inconclusive: 3.98 µM [inhibitor, partial curve, poor fit].
For CCOC(=O)c1nn(-c2ccc(C)cc2)c(=O)c2c(N)scc12, the Potency was inconclusive: 11.2 µM [inhibitor, partial curve].
With CC(C)(C)c1ccc(OCCn2cc(C(=O)c3ccco3)c3ccccc32)cc1 the Potency was inconclusive: 2.24 µM [inhibitor, full curve].
For CCN(CC(=O)NCc1ccc(F)cc1)Cc1nc2cc(Cl)ccc2c(=O)[nH]1, the Potency was “inactive”.
For CC(=O)Nc1ccc(N2CCCCC2)cc1, the Potency was “inactive”.
CCCC(CCC)C(=O)Nc1cc(-c2cn3cccnc3n2)ccc1OC was tested, and the Potency was “inactive”.
For CCOC(=O)C1CCCCN1S(=O)(=O)c1csc(C(N)=O)c1 (stereo not drawn), the Potency was “inactive”.
For COc1ccc(S(=O)(=O)c2c(C)c(NS(=O)(=O)c3ccccc3)cc(C)c2O)cc1, the Potency was inconclusive: 11.2 µM [inhibitor, partial curve, poor fit].
For C[C@@H](CN1C2=NC[C@H](C)N2C[C@H]1Cc1ccc(O)cc1)NC(=O)CCC1CCCCC1, the Potency was “inactive”.
With Cc1oc(-c2cccc(Cl)c2)nc1CN1CCC(C(=O)NCCCN2CCN(c3ccc(F)cc3)CC2)CC1 the Potency was “inactive”.
For Nc1ccc(N2CCCCC2)c2nonc12, the Potency was inconclusive: 12.6 µM [inhibitor, partial curve].
For Cc1nc(NC(=O)c2ccc([N+](=O)[O-])cc2Cl)sc1C(=O)N(C)C, the Potency was inconclusive: 20 µM [inhibitor, partial curve].
For COc1ccc(C)cc1NC(=O)c1ccc(NS(=O)(=O)c2cccc3cccnc23)cc1, the Potency was inconclusive: 28.2 µM [inhibitor, partial curve].
With CCCSc1nnc2c(n1)OC(c1sccc1C)Nc1ccccc1-2 (stereo not drawn) the Potency was “inactive”.
In the case of CCOc1[nH]c(/N=C/c2ccco2)c(C#N)c1C#N, the Potency is reported as inconclusive: 15.8 µM [inhibitor, single point].
Cc1ccc(OC[C@H](O)[C@H](C)NC(C)C)c2c1CCC2 was tested, and the Potency was “inactive”.
With O=C(Cc1cc(=O)[nH][nH]1)N/N=C/c1cccc(Cl)c1Cl the Potency was inconclusive: 2.51 µM [inhibitor, full curve, poor fit] and inconclusive: 5.62 µM [inhibitor, single point].
In the case of Cc1cc(C(C#N)c2ccccc2F)n2ncnc2n1 (stereo not drawn), the Potency is reported as “inactive”.
In the case of CCOc1ccccc1N1CCN(C(=O)c2cccc(-c3ccc(O)cc3)c2)CC1, the Potency is reported as inconclusive: 22.4 µM [activator, single point].
In the case of C/C(=C\C(=O)C(F)(F)F)Nc1ccc(C)cc1, the Potency is reported as inconclusive: 0.1 µM [inhibitor, full curve, poor fit].
With CCOC(=O)c1ccc([N+](=O)[O-])cc1NC(C)=O the Potency was “inactive”.
